Source: PMC8783668
Positions count from the first letter of the chain named. Names and notes keep the numbering of the source. No constants are given. Whether binding was seen depends on the method and setting. For part of these data: Binding seen in cells or lysates may run through a third protein. Some binding calls cover weakened binding; strength is not graded here. Where a sequence is shown, tags or fusion partners need not be part of it.

Tests used:
[1] = target: T1, FLOWERING CONTROL LOCUS A (FCA), yeast two-hybrid fusion (Arabidopsis) (UniProt O04425); assay: two-hybrid; Yeast Two-Hybrid in yeast; CPK32/pDEST32 as negative control
T1 sequence: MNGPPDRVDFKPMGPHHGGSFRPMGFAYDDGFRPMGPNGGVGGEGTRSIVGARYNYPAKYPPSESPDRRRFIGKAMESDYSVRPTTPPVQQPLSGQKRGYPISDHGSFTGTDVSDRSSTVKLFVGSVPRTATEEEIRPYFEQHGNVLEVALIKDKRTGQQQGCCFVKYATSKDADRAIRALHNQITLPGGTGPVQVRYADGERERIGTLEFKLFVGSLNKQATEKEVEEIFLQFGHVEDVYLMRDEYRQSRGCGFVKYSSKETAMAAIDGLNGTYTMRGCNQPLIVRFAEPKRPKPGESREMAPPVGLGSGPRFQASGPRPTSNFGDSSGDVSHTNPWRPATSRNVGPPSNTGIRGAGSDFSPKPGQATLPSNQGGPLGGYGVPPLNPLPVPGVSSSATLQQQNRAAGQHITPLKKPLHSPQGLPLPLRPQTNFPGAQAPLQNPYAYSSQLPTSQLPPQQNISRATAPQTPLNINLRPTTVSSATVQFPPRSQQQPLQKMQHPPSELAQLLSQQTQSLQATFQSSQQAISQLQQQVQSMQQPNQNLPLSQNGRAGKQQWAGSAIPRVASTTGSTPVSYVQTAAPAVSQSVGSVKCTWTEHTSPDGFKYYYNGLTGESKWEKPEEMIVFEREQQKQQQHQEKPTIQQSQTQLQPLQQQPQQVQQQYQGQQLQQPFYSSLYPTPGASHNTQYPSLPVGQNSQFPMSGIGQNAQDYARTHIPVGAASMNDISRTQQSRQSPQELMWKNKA

[2] = target: T2, FCA fused to the N-terminal half of YFP (Arabidopsis) (UniProt O04425); assay: split reporter; BiFC with the two halves of YFP in N. benthamiana leaves; DAPI to stain the nucleus
T2 sequence: T1 sequence

[3] = target: T3, FY-YN (FY fused to the N-terminal half of YFP) (Arabidopsis) (UniProt Q6NLV4); assay: as above
T3 sequence: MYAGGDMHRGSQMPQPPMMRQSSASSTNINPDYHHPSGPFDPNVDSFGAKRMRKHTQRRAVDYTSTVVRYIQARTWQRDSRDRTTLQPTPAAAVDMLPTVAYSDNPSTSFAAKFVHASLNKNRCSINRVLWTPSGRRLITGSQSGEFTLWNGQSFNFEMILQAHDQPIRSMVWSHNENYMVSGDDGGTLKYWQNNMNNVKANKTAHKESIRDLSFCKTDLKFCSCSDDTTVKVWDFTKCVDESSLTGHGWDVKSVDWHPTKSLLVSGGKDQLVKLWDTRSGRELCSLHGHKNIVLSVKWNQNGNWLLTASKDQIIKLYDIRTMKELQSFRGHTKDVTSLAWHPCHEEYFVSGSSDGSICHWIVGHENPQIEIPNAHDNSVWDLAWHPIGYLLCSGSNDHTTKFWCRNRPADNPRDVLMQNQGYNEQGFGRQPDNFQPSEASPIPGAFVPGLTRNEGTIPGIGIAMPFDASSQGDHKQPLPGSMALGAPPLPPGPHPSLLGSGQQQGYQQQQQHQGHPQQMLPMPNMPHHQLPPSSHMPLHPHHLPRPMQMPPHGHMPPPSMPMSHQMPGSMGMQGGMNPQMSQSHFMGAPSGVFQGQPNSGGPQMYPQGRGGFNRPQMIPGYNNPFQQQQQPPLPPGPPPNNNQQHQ

[4] = target: T4, calcium-dependent protein kinase 32 (CPK32), yeast two-hybrid fusion (Arabidopsis) (UniProt Q6NLQ6); assay: two-hybrid; Yeast Two-Hybrid in yeast; CPK32/pDEST32 as negative control
T4 sequence: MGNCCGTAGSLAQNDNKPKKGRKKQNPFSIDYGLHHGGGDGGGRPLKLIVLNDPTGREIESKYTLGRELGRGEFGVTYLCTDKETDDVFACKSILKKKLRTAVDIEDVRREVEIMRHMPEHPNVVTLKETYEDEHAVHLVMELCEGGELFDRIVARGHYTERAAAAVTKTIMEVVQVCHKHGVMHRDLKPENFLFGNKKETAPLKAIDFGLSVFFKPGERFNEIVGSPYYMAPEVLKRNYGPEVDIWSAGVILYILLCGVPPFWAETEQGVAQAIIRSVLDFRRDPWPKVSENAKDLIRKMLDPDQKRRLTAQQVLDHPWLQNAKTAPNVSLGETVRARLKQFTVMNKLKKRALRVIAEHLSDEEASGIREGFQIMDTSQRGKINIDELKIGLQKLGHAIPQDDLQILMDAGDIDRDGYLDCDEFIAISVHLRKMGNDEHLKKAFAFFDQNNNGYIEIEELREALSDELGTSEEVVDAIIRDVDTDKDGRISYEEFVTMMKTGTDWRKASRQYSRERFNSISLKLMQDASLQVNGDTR

B1: calcium-dependent protein kinase 32 (CPK32), yeast two-hybrid fusion (enzyme, UniProt Q6NLQ6 1-538)
chain: T4 sequence
For B1, the binding [1] was “binds”.

B2: CPK32 fused to the C-terminal half of YFP (enzyme, UniProt Q6NLQ6 1-538)
chain: T4 sequence
B2 was tested, and the binding [2] was “binds”.

B3: FCA^S592D fused to the C-terminal half of YFP (protein, UniProt O04425 1-747)
chain: T1 sequence with S592D
With B3 the binding [3] was “binds”.

B4: FLOWERING LOCUS Y (FY), yeast two-hybrid fusion (protein, UniProt Q6NLV4 1-647)
chain: T3 sequence
With B4 the binding [4] was “no binding”.

B5: FLK, yeast two-hybrid fusion (protein, UniProt Q9SR13 1-577)
chain: MAEAEDQQNFVAHNGDQVPDQGSDELHNGLPYQVHDETLVHQPYEVEDPILEPQQYEVPDPTLEPQQYEVPDQTLEPQQYEVDDQLEYHQYQLQDQANEDVQDHSQDDLQYQPQNQEQFQLQDEAHDQAQYQAQGDVQDHNGDEVQDKVEDEEGIPEHLESLQKSEPEEDATVGGEEKRWPGWPGETVFRMLVPAQKVGSIIGRKGDVIKKIVEETRARIKILDGPPGTTERAVMVSGKEEPESSLPPSMDGLLRVHMRIVDGLDGEASQAPPPSKVSTRLLVPASQAGSLIGKQGGTVKAIQEASACIVRVLGSEDLPVFALQDDRVVEVVGEPTSVHRALELIASHLRKFLVDRSIIPFFENQMQKPTRQMDHMPPPHQSWGPPQGHAPSVGGGGYGHNPPPYMQPPPRHDSYYPPPEMRQPPMEKQPHQGISAYGREPPMNVHVSSAPPMVAQQVTQQMQIPLSYADAVIGTSGSNISYTRRLSGATVTIQETRGVPGEMTVEVSGTGSQVQTAVQLIQNFMAEAGAPAPAQPQTVAPEQQGYNPYATHGSVYAAAPTNPPGGYATDYSSGYGY
In the case of B5, the binding [4] is reported as “no binding”.

B6: FCA^S592A fused to the C-terminal half of YFP (protein, UniProt O04425 1-747)
chain: T1 sequence with S592A
B6 was tested, and the binding [3] was “no binding”.
